According to publication PMC4336329 (PLoS ONE, 2015):
Out of some 310,000 compounds screened, about 14,000 (4.5%) showed an effect of 50% or more. The effect is printed as a negative number. The list shows a part of the results.

These compounds were tested against human ether-à-go-go-related gene (hERG) potassium channel (human, UniProt Q12809) (assay: primary screen, population patch clamp on CHO cells stably expressing hERG).
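Note: peak tail current of the secondary pulse compared with the same well before compound.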

human ether-à-go-go-related gene (hERG) potassium channel, sequence (Q12809 whole entry, looked up): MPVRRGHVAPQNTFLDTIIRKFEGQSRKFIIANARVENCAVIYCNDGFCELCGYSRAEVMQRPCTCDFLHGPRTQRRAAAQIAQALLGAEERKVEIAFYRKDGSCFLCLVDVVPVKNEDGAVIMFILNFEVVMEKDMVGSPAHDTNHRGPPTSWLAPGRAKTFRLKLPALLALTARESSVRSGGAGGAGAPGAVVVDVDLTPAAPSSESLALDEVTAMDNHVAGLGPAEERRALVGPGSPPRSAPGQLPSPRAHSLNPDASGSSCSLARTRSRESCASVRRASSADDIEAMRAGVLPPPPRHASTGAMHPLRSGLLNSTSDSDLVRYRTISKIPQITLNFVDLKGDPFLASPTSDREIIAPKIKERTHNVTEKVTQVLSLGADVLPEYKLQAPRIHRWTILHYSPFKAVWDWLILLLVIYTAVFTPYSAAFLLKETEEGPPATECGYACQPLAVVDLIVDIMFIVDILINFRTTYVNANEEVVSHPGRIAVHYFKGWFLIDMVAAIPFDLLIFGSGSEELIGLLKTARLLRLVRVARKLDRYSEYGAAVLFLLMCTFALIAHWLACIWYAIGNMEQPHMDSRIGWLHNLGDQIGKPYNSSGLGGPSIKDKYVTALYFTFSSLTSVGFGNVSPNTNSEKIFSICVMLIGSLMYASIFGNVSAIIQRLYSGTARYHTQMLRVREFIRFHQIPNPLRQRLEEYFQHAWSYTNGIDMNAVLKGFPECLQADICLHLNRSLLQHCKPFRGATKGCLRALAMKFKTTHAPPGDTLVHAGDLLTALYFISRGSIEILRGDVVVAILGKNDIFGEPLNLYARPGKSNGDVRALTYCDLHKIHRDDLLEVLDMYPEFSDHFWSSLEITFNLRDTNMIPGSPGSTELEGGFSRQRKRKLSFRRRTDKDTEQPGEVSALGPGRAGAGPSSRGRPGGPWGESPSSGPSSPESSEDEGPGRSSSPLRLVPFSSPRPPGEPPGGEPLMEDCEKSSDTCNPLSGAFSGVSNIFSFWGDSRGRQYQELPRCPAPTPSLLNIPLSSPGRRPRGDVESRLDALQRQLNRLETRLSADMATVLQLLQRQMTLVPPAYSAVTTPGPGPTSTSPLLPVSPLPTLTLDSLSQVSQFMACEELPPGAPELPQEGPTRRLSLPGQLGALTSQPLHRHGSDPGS

Row | SMILES | hERG current change (%, negative = inhibition) at 10uM [%]
1 | O=C(Nc1ccccc1)Nc1ccc(C(F)(F)F)cn1 | 7.46
2 | COc1ccc2cc(C(=O)C3CCCN(C(=O)c4cc(=O)n(C)c(=O)n4C)C3)ccc2c1 (centres unmarked) | -38.4
3 | COc1ccc(C(=O)/C=C/N2CCCCC2)cc1OC | 9.67
4 | CSc1ccc(-c2nc(CSCC(=O)N3CCOCC3)c(C)o2)cc1 | -25.2
5 | Cc1cccn2c(=O)c3cc(C(=O)N(C)C)n(C)c3nc12 | 2.7
6 | CC(C)N(C(=O)CSc1nnc(NC(=O)Cc2cccs2)s1)C(C)C | 9.08
7 | O=C(CSc1ccc(-c2ccccn2)nn1)NCc1ccccc1 | 2.53
8 | O=C(c1ccc(-n2cccc2)cc1)N1CCCCC1 | 5.72
9 | CSc1nnc(NC(=O)c2nc(S(=O)(=O)Cc3cccc(C)c3)ncc2Cl)s1 | -6.39
10 | Cc1cccc(NC(=O)c2ccc(S(=O)(=O)NCc3cccnc3)cc2)c1 | -2.34
11 | CCC(c1nnnn1Cc1ccco1)N(CCc1ccccc1)Cc1cc2cc(C)ccc2[nH]c1=O (centres unmarked) | 0.239
12 | CC1(C)C2CCC1(CS(=O)(=O)NCc1ccc(S(N)(=O)=O)cc1)C(=O)C2 (centres unmarked) | 7.51
13 | CCOC(=O)CC(NC(=O)Cc1cccs1)c1ccccc1Cl (centres unmarked) | 5.29
14 | CCS(=O)(=O)N1CCN(c2cnn(-c3ccccc3)c(=O)c2Cl)CC1 | -29
15 | COc1cccc(-n2c(CNC(=O)OC(C)(C)C)n[nH]c2=S)c1 | 13.7
16 | O=C(O)C1C2C=CC(C2)C1C(=O)NCc1ccccn1 (centres unmarked) | -3.63
17 | Cc1ccnc(SCc2nc3ccccc3s2)n1 | 4.27
18 | c1cncc(-c2nc3ccccn3c2Nc2ccc3c(c2)OCCO3)c1 | -11.4
19 | O=C(Nc1ccc(C(F)(F)F)cn1)Nc1cccs1 | 6.66
20 | Cc1cc(C)c2c(=O)c3c(oc2c1)C(=O)N(CCO)C3c1cccc(O)c1 (centres unmarked) | 4.2
21 | Cc1cc(=O)oc2cc(NC(=O)C(C)Oc3ccc(F)cc3)ccc12 (centres unmarked) | -28.1
22 | CCOCCN(C(=O)c1ccccc1Cl)c1cccc(C)c1C | 9.34

Row | SMILES | hERG current change (%, negative = inhibition) at 10uM [%]
23 | COc1ccc(C2=NOC(C(=O)N3CCN(c4ccccc4OC)CC3)C2)cc1 (centres unmarked) | 11.4
24 | CC1CC(=O)Nc2ccccc2N1S(=O)(=O)c1ccc(C#N)cc1 (centres unmarked) | 11.4
25 | CC1Oc2ccccc2N(CC(=O)Nc2ccc3c(c2)OCO3)C1=O (centres unmarked) | 3.74
26 | S=C(NCCN1CCOCC1)NC1CCCCC1 | 22.5
27 | O=S(=O)(c1ccc(Cl)cc1)n1ccc2cccnc21 | -4.45
28 | O=C(c1cnc2n(c1=O)CCS2)N1CCc2ccccc21 | 9.35
29 | O=C(NCC(=O)N(CC1CCCO1)C(C(=O)NC1CCCCC1)c1ccc(F)cc1)c1ccco1 (centres unmarked) | 2.68
30 | Cc1cccc2cc3c(NC(=O)CC(C)C)nn(C)c3nc12 | 10.2
31 | COc1ccc(N2CCN(Cc3nc(N)nc(Nc4ccc(C)c(Cl)c4)n3)CC2)cc1 | -63.1
32 | O=C(CCCn1c(=S)[nH]c2cc3c(cc2c1=O)OCO3)NCCc1ccccc1Cl | 5.71
33 | Cc1cccc(OCC(=O)NNC(=O)c2cc(S(=O)(=O)N(C)C)ccc2N2CCCC2)c1 | -37.7
34 | Cc1ccc(NC(=O)CNCc2ccccc2Cl)cc1S(=O)(=O)N(C)C.O=C(O)C(=O)O | -21.1
35 | O=C(O)c1ccccc1CSc1nc2ccccc2n1Cc1ccccc1C(=O)O | 43.2
36 | CCOC(=O)Cc1csc(NC(=O)CN(C)S(=O)(=O)c2ccc3c(c2)CCC(=O)N3)n1 | -15.9
37 | Cc1nn(-c2ccccc2)nc1C(=O)Nc1nnc(C(F)(F)F)s1 | 4.23
38 | CC(CCCC(C)(C)O)CC1C2=C(CCCC2=O)OC2=C1C(=O)CCC2 (centres unmarked) | 9.82
39 | O=C(Nc1nonc1-c1ccc(Cl)cc1)c1ccco1 | 2.62
40 | CN(C)c1ncc(CN2CCC(C(=O)Nc3ccc(-n4cccn4)cc3)CC2)s1 | -10.7
41 | CCNS(=O)(=O)c1ccc(CCC(=O)O)cc1 | 23.6
42 | CCOc1ccc(C(C)=O)cc1CSc1nc(C)cc(C)n1 | -6.21
43 | Cc1cccc(CSCCNC(=O)CCSc2ccccc2)c1 | -21.4
44 | S=C(NNC(=S)NC1CC2C=CC1C2)NC1CC2C=CC1C2 (centres unmarked) | 11.2
